# Measured values taken from the supplement of paper PMC4604168 (melanoma cell lines).
# The other results are listed elsewhere or left out. Most values come without repeats; read them as rough.
# Assays:
# Assay in all cases: cell count relative to DMSO control; melanoma cells; higher = more viable cells
# Conditions in all cases: library dose: low library concentration; 72 h
# COLO792 = system: COLO792
# COLO800 = system: COLO800
# COLO829 = system: COLO829
# G361 = system: G361
# IPC-298 = system: IPC-298
# IST-MEL1 = system: IST-MEL1
# LB2518-MEL = system: LB2518-MEL
# LOXIMVI = system: LOXIMVI
# MEL-HO = system: MEL-HO
# MZ2-MEL = system: MZ2-MEL
# MeWo = system: MeWo
# RPMI7951 = system: RPMI7951
# RVH-421 = system: RVH-421
# SkMel28 = system: SkMel28
# SkMel2 = system: SkMel2
# SkMel30 = system: SkMel30
# SkMel5 = system: SkMel5
# UACC257 = system: UACC257
# UACC62 = system: UACC62
# 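Also: cell number obtained by counting DAPI-stained nuclei in high-throughput microscope images with image analysis software, screen run in 1,536-well plates.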
Structure (SMILES),cell count (COLO792) [%],cell count (COLO800) [%],cell count (COLO829) [%],cell count (G361) [%],cell count (IPC-298) [%],cell count (IST-MEL1) [%],cell count (LB2518-MEL) [%],cell count (LOXIMVI) [%],cell count (MEL-HO) [%],cell count (MZ2-MEL) [%],cell count (MeWo) [%],cell count (RPMI7951) [%],cell count (RVH-421) [%],cell count (SkMel28) [%],cell count (SkMel2) [%],cell count (SkMel30) [%],cell count (SkMel5) [%],cell count (UACC257) [%],cell count (UACC62) [%]
"Cn1cc(C2=C(c3cn(C4CCN(Cc5ccccn5)CC4)c4ccccc34)C(=O)NC2=O)c2ccccc21 [Enzastaurin] + COc1ccc(COc2ccc(Cc3cnc(N)nc3N)cc2OC)cc1 [GW2580] (first compound 0.8 µM, partner dose 1 µM)",91.7,83.8,119,95,108,103,99.9,110,103,96.9,129,85.6,74.8,118,99.4,101,92.6,105,109
"Cn1cc(C2=C(c3cn(C4CCN(Cc5ccccn5)CC4)c4ccccc34)C(=O)NC2=O)c2ccccc21 [Enzastaurin] + NCC(=O)Nc1ccc(-n2nc(C(F)(F)F)cc2-c2ccc3c(ccc4ccccc43)c2)cc1 [OSU03012] (first compound 0.8 µM, partner dose 1 µM)",87.7,84.7,93.2,98.2,95.6,84,94.9,93.5,101,99,64.7,88.4,72.2,91.1,86.2,61.3,93.1,100,87.4
"N.N.[Cl][Pt][Cl] [cisplatin] + COc1cc2ncnc(Nc3ccc(Oc4ccccc4)cc3)c2cc1OC [SrcI1] (first compound 1.6 µM, partner dose 2 µM)",103,101,100,87,96.5,97.8,109,83.5,101,89.2,100,111,119,103,100,113,103,93.8,91.5
"C[C@]12O[C@H](C[C@]1(O)CO)n1c3ccccc3c3c4c(c5c6ccccc6n2c5c31)CNC4=O [Lestaurtinib] + COc1cc(Nc2ncc(F)c(Nc3ccc4c(n3)NC(=O)C(C)(C)O4)n2)cc(OC)c1OC [Tamatinib] (first compound 0.004 µM, partner dose 0.4 µM)",70,81,102,97.5,74,101,79.1,99.2,98.9,93.8,95.7,94,121,86,–,91.5,82.8,59.5,93.1
"C[C@]12O[C@H](C[C@]1(O)CO)n1c3ccccc3c3c4c(c5c6ccccc6n2c5c31)CNC4=O [Lestaurtinib] + C[C@@H]1CCN(C(=O)CC#N)C[C@@H]1N(C)c1ncnc2[nH]ccc12 [CP690550] (first compound 0.004 µM, partner dose 1 µM)",89.6,106,112,115,94.1,102,94.8,132,89,102,92.7,133,103,106,–,80.2,96.7,94,106
"Cn1cc(C2=C(c3cn(C4CCN(Cc5ccccn5)CC4)c4ccccc34)C(=O)NC2=O)c2ccccc21 [Enzastaurin] + Cn1cncc1[C@@](N)(c1ccc(Cl)cc1)c1ccc2c(c1)c(-c1cccc(Cl)c1)cc(=O)n2C [tipifarnib] (first compound 0.8 µM, partner dose 0.01 µM)",108,67.7,119,109,110,103,74.8,115,102,99.1,110,98.5,90.7,84.7,94.5,117,97.4,82.8,64.5
"C[As](C)SC[C@H](NC(=O)CC[C@H](N)C(=O)O)C(=O)NCC(=O)O [Darinaparsin] + Cn1cncc1[C@@](N)(c1ccc(Cl)cc1)c1ccc2c(c1)c(-c1cccc(Cl)c1)cc(=O)n2C [tipifarnib] (first compound 0.4 µM, partner dose 0.01 µM)",95.8,117,103,93.8,96.5,87.7,82.4,72.6,102,110,89.9,101,76.1,88.1,81.7,79.4,103,86.7,70.4
"Cn1cc(C2=C(c3cn(C4CCN(Cc5ccccn5)CC4)c4ccccc34)C(=O)NC2=O)c2ccccc21 [Enzastaurin] + O=C(O)c1ccc(-c2c[nH]c3ncc(-c4ccccc4)cc23)cc1C1CCCC1 [GSK650394] (first compound 0.8 µM, partner dose 0.16 µM)",98.2,119,86.6,91.9,102,95.7,103,364,90.6,92.2,86.5,84.7,99.1,82.4,113,121,91.6,90.2,101
"Cn1cc(C2=C(c3cn(C4CCN(Cc5ccccn5)CC4)c4ccccc34)C(=O)NC2=O)c2ccccc21 [Enzastaurin] + Cn1cc(/C=C2\C(=O)Nc3cccnc32)c2ccccc21 [GW441756] (first compound 0.8 µM, partner dose 0.4 µM)",98.5,54.3,116,102,101,101,85.7,84.7,98.5,94.2,103,103,72.9,97.7,105,87.1,94.7,63,95.3
"N.N.[Cl][Pt][Cl] [cisplatin] + O=C1NC(=O)/C(=C/c2ccc(-c3ccc(F)cc3O)o2)S1 [AS252424] (first compound 1.6 µM, partner dose 1 µM)",91.7,54.5,94.9,102,103,97.4,91.2,99.8,86.8,97.4,88.9,96,83.4,80.1,96.3,85.6,94.4,94.2,101
"N.N.[Cl][Pt][Cl] [cisplatin] + COc1ccc2c(c1)CCC1C2CCC2(C)C(NCCCCCCN3C(=O)C=CC3=O)CCC12 [U73122] (first compound 1.6 µM, partner dose 0.4 µM)",107,144,84.8,83.4,102,96.8,102,85.2,95.2,97.8,83.3,86.3,109,113,101,90.8,94.9,101,86
"C[C@]12O[C@H](C[C@]1(O)CO)n1c3ccccc3c3c4c(c5c6ccccc6n2c5c31)CNC4=O [Lestaurtinib] + O=C(O)c1ccc(-c2c[nH]c3ncc(-c4ccccc4)cc23)cc1C1CCCC1 [GSK650394] (first compound 0.004 µM, partner dose 0.16 µM)",99.9,153,84.4,90.8,89.2,90.6,89.4,113,88.1,95.4,82.8,85.6,112,93.4,–,93,101,88.6,90.7
"N.N.[Cl][Pt][Cl] [cisplatin] + CN(C)S(=O)(=O)c1ccc2c(c1)/C(=C/c1cc3c([nH]1)CCCC3)C(=O)N2 [SU6656] (first compound 1.6 µM, partner dose 0.4 µM)",91.1,117,110,85.3,105,90.5,82.8,85.9,89.7,106,97.4,93.2,82,87.6,97.2,99.8,93.4,65.8,74.6
"N.N.[Cl][Pt][Cl] [cisplatin] + Oc1cc(-c2nc(-c3ccccc3)[nH]c2-c2ccncc2)ccc1Cl [L779450] (first compound 1.6 µM, partner dose 0.2 µM)",90.9,92.3,84.6,96.2,77.8,91.5,30.9,149,56.1,76.1,94.6,76.4,107,88.2,99.2,78.6,97.3,96.2,102
"C[C@]12O[C@H](C[C@]1(O)CO)n1c3ccccc3c3c4c(c5c6ccccc6n2c5c31)CNC4=O [Lestaurtinib] + Cn1cncc1[C@@](N)(c1ccc(Cl)cc1)c1ccc2c(c1)c(-c1cccc(Cl)c1)cc(=O)n2C [tipifarnib] (first compound 0.004 µM, partner dose 0.01 µM)",96.7,85.8,90.3,92.7,93.6,97,77.1,68.2,96.6,93.2,87.9,98.1,86.5,82.5,–,87.3,105,64.9,71
"C[C@]12O[C@H](C[C@]1(O)CO)n1c3ccccc3c3c4c(c5c6ccccc6n2c5c31)CNC4=O [Lestaurtinib] + CCCCCCCCCCCC1=C(O)C(=O)C=C(O)C1=O [Embelin] (first compound 0.004 µM, partner dose 1.2 µM)",102,127,103,94.4,99.9,101,86.3,118,103,101,89.9,107,115,109,–,105,98.9,91.4,120
"C[As](C)SC[C@H](NC(=O)CC[C@H](N)C(=O)O)C(=O)NCC(=O)O [Darinaparsin] + O=C(Nc1cccc(Cl)c1)Nc1ncc(CCNc2ncnc3ccsc23)s1 [SNS314] (first compound 0.4 µM, partner dose 0.0008 µM)",105,121,98.4,103,95.9,96.3,81.2,156,96,107,95.1,94.9,95.3,86,93.2,73.6,97.9,74.6,90.4
"C[As](C)SC[C@H](NC(=O)CC[C@H](N)C(=O)O)C(=O)NCC(=O)O [Darinaparsin] + CC(C)(C)c1cnc(CSc2cnc(NC(=O)C3CCNCC3)s2)o1 [SNS-032] (first compound 0.4 µM, partner dose 0.01 µM)",83,85.9,99,105,102,103,83.7,79.3,103,105,93.8,105,116,94.8,107,111,81.8,80.3,82
